Measured values taken from the supplement of paper PMC4604168 (melanoma cell lines).
This is one part of the list. Single values are uncertain, as repeats are few or missing.

test system: WM3526; assay: cell count relative to DMSO control; melanoma cells; higher = more viable cells; details: library dose: standard library concentration; 72 h
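Further: cells treated in 1,536-well plates, then fixed and DAPI-stained, with nuclei counted from automated high-throughput microscope images.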

| Structure (SMILES) | cell count [%] |
| --- | --- |
| O=C(Nc1cc(C(F)(F)F)cc(C(F)(F)F)c1)c1cc(Cl)ccc1O + Nc1ncn([C@H]2C[C@H](O)[C@@H](CO)O2)c(=O)n1 [decitabine] (first compound 0.08 µM, partner dose 0.5 µM) | 93.8 |
| O=C(O)[C@@H]1[O][Sb](=[O])([O][Sb]2(=[O])[O][C@H]([C@H](O)CO)[C@H](O)[C@H](C(=O)O)[O]2)[O][C@H]([C@H](O)CO)[C@@H]1O (stereo partly specified) [stibogluconate] + N#Cc1c(O)c2c(-c3ccc(-c4ccccc4O)cc3)csc2[nH]c1=O [A769662] (first compound 10 µM, partner dose 10 µM) | 106 |
| O=C(Nc1ccccc1)c1cc([N+](=O)[O-])ccc1Cl + Cc1cc([N+](=O)[O-])ccc1NS(=O)(=O)c1cc(Cl)ccc1Cl [FH535] (first compound 10 µM, partner dose 5 µM) | 77.2 |
| O=C(Nc1cc(C(F)(F)F)cc(C(F)(F)F)c1)c1cc(Cl)ccc1O + Nc1ccn([C@@H]2O[C@H](CO)[C@@H](O)C2(F)F)c(=O)n1 [gemcitabine] (first compound 0.08 µM, partner dose 0.002 µM) | 100 |
| O=C(Nc1cc(C(F)(F)F)cc(C(F)(F)F)c1)c1cc(Cl)ccc1O + C=CCn1c(=O)c2cnc(Nc3ccc(N4CCN(C)CC4)cc3)nc2n1-c1cccc(C(C)(C)O)n1 [MK1775] (first compound 0.08 µM, partner dose 0.1 µM) | 85.7 |
| O=C(Nc1cc(C(F)(F)F)cc(C(F)(F)F)c1)c1cc(Cl)ccc1O + CCCCCCCCCCCC1=C(O)C(=O)C=C(O)C1=O [Embelin] (first compound 0.08 µM, partner dose 6 µM) | 93.9 |
| Cn1nnc2c(C(N)=O)ncn2c1=O [temozolomide] + CCN(CC)CCCCNc1ncc2cc(-c3cc(OC)cc(OC)c3)c(NC(=O)NC(C)(C)C)nc2n1 [PD173074] (first compound 10 µM, partner dose 0.5 µM) | 106 |
| O=C(O)[C@@H]1[O][Sb](=[O])([O][Sb]2(=[O])[O][C@H]([C@H](O)CO)[C@H](O)[C@H](C(=O)O)[O]2)[O][C@H]([C@H](O)CO)[C@@H]1O (stereo partly specified) [stibogluconate] + Nc1ncn([C@H]2C[C@H](O)[C@@H](CO)O2)c(=O)n1 [decitabine] (first compound 10 µM, partner dose 0.5 µM) | 108 |
| O=C(O)c1ccc2c(c1)nc(Nc1cccc(Cl)c1)c1ccncc12 + C=CCn1c(=O)c2cnc(Nc3ccc(N4CCN(C)CC4)cc3)nc2n1-c1cccc(C(C)(C)O)n1 [MK1775] (first compound 2 µM, partner dose 0.1 µM) | 63.9 |
| O=C(O)c1ccc2c(c1)nc(Nc1cccc(Cl)c1)c1ccncc12 + COc1cc(N2CCC(N3CCN(C)CC3)CC2)ccc1Nc1ncc(Cl)c(Nc2ccccc2S(=O)(=O)C(C)C)n1 [NVP-TAE684] (first compound 2 µM, partner dose 0.4 µM) | 73 |
| O=C(O)c1ccc2c(c1)nc(Nc1cccc(Cl)c1)c1ccncc12 + Cc1cc([N+](=O)[O-])ccc1NS(=O)(=O)c1cc(Cl)ccc1Cl [FH535] (first compound 2 µM, partner dose 5 µM) | 71.3 |
| O=C(Nc1cc(C(F)(F)F)cc(C(F)(F)F)c1)c1cc(Cl)ccc1O + Cn1c(Nc2ccc(C(F)(F)F)cc2)nc2cc(Oc3ccnc(-c4ncc(C(F)(F)F)[nH]4)c3)ccc21 [CHIR265] (first compound 0.08 µM, partner dose 0.4 µM) | 48.5 |
| O=C(O)[C@@H]1[O][Sb](=[O])([O][Sb]2(=[O])[O][C@H]([C@H](O)CO)[C@H](O)[C@H](C(=O)O)[O]2)[O][C@H]([C@H](O)CO)[C@@H]1O (stereo partly specified) [stibogluconate] + COc1cc2ncnc(Nc3ccc(Oc4ccccc4)cc3)c2cc1OC [SrcI1] (first compound 10 µM, partner dose 10 µM) | 60.8 |
| O=C(O)c1ccc2c(c1)nc(Nc1cccc(Cl)c1)c1ccncc12 + C#Cc1cccc(Nc2ncnc3cc(OCCOC)c(OCCOC)cc23)c1 [erlotinib] (first compound 2 µM, partner dose 4 µM) | 43.1 |
| Cc1cc(N2CCOCC2)cc2[nH]c(-c3c(NC[C@@H](O)c4cccc(Cl)c4)cc[nH]c3=O)nc12 + Oc1cc(-c2nc(-c3ccccc3)[nH]c2-c2ccncc2)ccc1Cl [L779450] (first compound 1 µM, partner dose 1 µM) | 36 |
| O=C(O)[C@@H]1[O][Sb](=[O])([O][Sb]2(=[O])[O][C@H]([C@H](O)CO)[C@H](O)[C@H](C(=O)O)[O]2)[O][C@H]([C@H](O)CO)[C@@H]1O (stereo partly specified) [stibogluconate] + O=S(=O)(c1ccccc1)N(CC(F)(F)F)c1ccc(C(O)(C(F)(F)F)C(F)(F)F)cc1 [T0901317] (first compound 10 µM, partner dose 7 µM) | 87.6 |

| Structure (SMILES) | cell count [%] |
| --- | --- |
| O=C(O)[C@@H]1[O][Sb](=[O])([O][Sb]2(=[O])[O][C@H]([C@H](O)CO)[C@H](O)[C@H](C(=O)O)[O]2)[O][C@H]([C@H](O)CO)[C@@H]1O (stereo partly specified) [stibogluconate] + Cn1cncc1[C@@](N)(c1ccc(Cl)cc1)c1ccc2c(c1)c(-c1cccc(Cl)c1)cc(=O)n2C [tipifarnib] (first compound 10 µM, partner dose 0.05 µM) | 85.8 |
| O=C(Nc1cc(C(F)(F)F)cc(C(F)(F)F)c1)c1cc(Cl)ccc1O + COc1ccc(COc2ccc(Cc3cnc(N)nc3N)cc2OC)cc1 [GW2580] (first compound 0.08 µM, partner dose 5 µM) | 100 |
| O=C(Nc1cc(C(F)(F)F)cc(C(F)(F)F)c1)c1cc(Cl)ccc1O + Cc1cc([N+](=O)[O-])ccc1NS(=O)(=O)c1cc(Cl)ccc1Cl [FH535] (first compound 0.08 µM, partner dose 5 µM) | 93 |
| O=C(Nc1cc(C(F)(F)F)cc(C(F)(F)F)c1)c1cc(Cl)ccc1O + Cn1cc(/C=C2\C(=O)Nc3cccnc32)c2ccccc21 [GW441756] (first compound 0.08 µM, partner dose 2 µM) | 123 |
| O=C(O)c1ccc2c(c1)nc(Nc1cccc(Cl)c1)c1ccncc12 + CCc1ccc(CCOc2ccc(CC3SC(=O)NC3=O)cc2)nc1 [pioglitazone] (first compound 2 µM, partner dose 10 µM) | 72.8 |
| Cc1cc(N2CCOCC2)cc2[nH]c(-c3c(NC[C@@H](O)c4cccc(Cl)c4)cc[nH]c3=O)nc12 + CC(C)CCN1c2nc(Nc3cc(F)c(O)c(F)c3)ncc2N(C)C(=O)C1C [BID1870] (first compound 1 µM, partner dose 1 µM) | 59.7 |
| O=C(Nc1ccccc1)c1cc([N+](=O)[O-])ccc1Cl + COc1ccc(-c2ccc3c(N4CCOCC4)nc(N4C[C@@H](C)O[C@@H](C)C4)nc3n2)cc1CO [KU0063794] (first compound 10 µM, partner dose 0.1 µM) | 74.6 |
| O=C(O)c1ccc2c(c1)nc(Nc1cccc(Cl)c1)c1ccncc12 + O=c1cc(-c2cccc3c2Sc2ccccc2S3)oc(N2CCOCC2)c1 [KU55933] (first compound 2 µM, partner dose 5 µM) | 72.8 |
| O=C(O)c1ccc2c(c1)nc(Nc1cccc(Cl)c1)c1ccncc12 + c1cc(-c2cnn3cc(-c4ccc(OCCN5CCCCC5)cc4)cnc23)ccn1 [Dorsomorphin] (first compound 2 µM, partner dose 2 µM) | 69.3 |
| Cn1nnc2c(C(N)=O)ncn2c1=O [temozolomide] + Cc1cc([N+](=O)[O-])ccc1NS(=O)(=O)c1cc(Cl)ccc1Cl [FH535] (first compound 10 µM, partner dose 5 µM) | 78.5 |
| O=C(Nc1cc(C(F)(F)F)cc(C(F)(F)F)c1)c1cc(Cl)ccc1O + COc1ccc2c(c1)CCC1C2CCC2(C)C(NCCCCCCN3C(=O)C=CC3=O)CCC12 [U73122] (first compound 0.08 µM, partner dose 2 µM) | 129 |
| Cc1cc(N2CCOCC2)cc2[nH]c(-c3c(NC[C@@H](O)c4cccc(Cl)c4)cc[nH]c3=O)nc12 + Oc1nc(-c2ccc(C(F)(F)F)cc2)nc2c1CSCC2 [XAV939] (first compound 1 µM, partner dose 10 µM) | 80.7 |
| O=C(Nc1cc(C(F)(F)F)cc(C(F)(F)F)c1)c1cc(Cl)ccc1O + CC(=O)O[C@@]12CO[C@@H]1C[C@H](O)[C@@]1(C)C(=O)[C@H](O)C3=C(C)[C@@H](OC(=O)[C@H](O)[C@@H](NC(=O)OC(C)(C)C)c4ccccc4)C[C@@](O)([C@@H](OC(=O)c4ccccc4)[C@H]21)C3(C)C [Docetaxel] (first compound 0.08 µM, partner dose 0.0005 µM) | 54.5 |
| O=C(Nc1ccccc1)c1cc([N+](=O)[O-])ccc1Cl + O=S(=O)(c1ccccc1)N(CC(F)(F)F)c1ccc(C(O)(C(F)(F)F)C(F)(F)F)cc1 [T0901317] (first compound 10 µM, partner dose 7 µM) | 65.8 |
| O=C(Nc1cc(C(F)(F)F)cc(C(F)(F)F)c1)c1cc(Cl)ccc1O + CCc1ccc(CCOc2ccc(CC3SC(=O)NC3=O)cc2)nc1 [pioglitazone] (first compound 0.08 µM, partner dose 10 µM) | 114 |
